Our source for the binding values is publication PMC4534575, “The RNA Helicase DHX34 Activates NMD by Promoting a Transition from the Surveillance to the Decay-Inducing Complex” (Cell Reports, 2014).

Chains of the proteins cited; added tags and fusions are not shown.
UniProt Q96Q15: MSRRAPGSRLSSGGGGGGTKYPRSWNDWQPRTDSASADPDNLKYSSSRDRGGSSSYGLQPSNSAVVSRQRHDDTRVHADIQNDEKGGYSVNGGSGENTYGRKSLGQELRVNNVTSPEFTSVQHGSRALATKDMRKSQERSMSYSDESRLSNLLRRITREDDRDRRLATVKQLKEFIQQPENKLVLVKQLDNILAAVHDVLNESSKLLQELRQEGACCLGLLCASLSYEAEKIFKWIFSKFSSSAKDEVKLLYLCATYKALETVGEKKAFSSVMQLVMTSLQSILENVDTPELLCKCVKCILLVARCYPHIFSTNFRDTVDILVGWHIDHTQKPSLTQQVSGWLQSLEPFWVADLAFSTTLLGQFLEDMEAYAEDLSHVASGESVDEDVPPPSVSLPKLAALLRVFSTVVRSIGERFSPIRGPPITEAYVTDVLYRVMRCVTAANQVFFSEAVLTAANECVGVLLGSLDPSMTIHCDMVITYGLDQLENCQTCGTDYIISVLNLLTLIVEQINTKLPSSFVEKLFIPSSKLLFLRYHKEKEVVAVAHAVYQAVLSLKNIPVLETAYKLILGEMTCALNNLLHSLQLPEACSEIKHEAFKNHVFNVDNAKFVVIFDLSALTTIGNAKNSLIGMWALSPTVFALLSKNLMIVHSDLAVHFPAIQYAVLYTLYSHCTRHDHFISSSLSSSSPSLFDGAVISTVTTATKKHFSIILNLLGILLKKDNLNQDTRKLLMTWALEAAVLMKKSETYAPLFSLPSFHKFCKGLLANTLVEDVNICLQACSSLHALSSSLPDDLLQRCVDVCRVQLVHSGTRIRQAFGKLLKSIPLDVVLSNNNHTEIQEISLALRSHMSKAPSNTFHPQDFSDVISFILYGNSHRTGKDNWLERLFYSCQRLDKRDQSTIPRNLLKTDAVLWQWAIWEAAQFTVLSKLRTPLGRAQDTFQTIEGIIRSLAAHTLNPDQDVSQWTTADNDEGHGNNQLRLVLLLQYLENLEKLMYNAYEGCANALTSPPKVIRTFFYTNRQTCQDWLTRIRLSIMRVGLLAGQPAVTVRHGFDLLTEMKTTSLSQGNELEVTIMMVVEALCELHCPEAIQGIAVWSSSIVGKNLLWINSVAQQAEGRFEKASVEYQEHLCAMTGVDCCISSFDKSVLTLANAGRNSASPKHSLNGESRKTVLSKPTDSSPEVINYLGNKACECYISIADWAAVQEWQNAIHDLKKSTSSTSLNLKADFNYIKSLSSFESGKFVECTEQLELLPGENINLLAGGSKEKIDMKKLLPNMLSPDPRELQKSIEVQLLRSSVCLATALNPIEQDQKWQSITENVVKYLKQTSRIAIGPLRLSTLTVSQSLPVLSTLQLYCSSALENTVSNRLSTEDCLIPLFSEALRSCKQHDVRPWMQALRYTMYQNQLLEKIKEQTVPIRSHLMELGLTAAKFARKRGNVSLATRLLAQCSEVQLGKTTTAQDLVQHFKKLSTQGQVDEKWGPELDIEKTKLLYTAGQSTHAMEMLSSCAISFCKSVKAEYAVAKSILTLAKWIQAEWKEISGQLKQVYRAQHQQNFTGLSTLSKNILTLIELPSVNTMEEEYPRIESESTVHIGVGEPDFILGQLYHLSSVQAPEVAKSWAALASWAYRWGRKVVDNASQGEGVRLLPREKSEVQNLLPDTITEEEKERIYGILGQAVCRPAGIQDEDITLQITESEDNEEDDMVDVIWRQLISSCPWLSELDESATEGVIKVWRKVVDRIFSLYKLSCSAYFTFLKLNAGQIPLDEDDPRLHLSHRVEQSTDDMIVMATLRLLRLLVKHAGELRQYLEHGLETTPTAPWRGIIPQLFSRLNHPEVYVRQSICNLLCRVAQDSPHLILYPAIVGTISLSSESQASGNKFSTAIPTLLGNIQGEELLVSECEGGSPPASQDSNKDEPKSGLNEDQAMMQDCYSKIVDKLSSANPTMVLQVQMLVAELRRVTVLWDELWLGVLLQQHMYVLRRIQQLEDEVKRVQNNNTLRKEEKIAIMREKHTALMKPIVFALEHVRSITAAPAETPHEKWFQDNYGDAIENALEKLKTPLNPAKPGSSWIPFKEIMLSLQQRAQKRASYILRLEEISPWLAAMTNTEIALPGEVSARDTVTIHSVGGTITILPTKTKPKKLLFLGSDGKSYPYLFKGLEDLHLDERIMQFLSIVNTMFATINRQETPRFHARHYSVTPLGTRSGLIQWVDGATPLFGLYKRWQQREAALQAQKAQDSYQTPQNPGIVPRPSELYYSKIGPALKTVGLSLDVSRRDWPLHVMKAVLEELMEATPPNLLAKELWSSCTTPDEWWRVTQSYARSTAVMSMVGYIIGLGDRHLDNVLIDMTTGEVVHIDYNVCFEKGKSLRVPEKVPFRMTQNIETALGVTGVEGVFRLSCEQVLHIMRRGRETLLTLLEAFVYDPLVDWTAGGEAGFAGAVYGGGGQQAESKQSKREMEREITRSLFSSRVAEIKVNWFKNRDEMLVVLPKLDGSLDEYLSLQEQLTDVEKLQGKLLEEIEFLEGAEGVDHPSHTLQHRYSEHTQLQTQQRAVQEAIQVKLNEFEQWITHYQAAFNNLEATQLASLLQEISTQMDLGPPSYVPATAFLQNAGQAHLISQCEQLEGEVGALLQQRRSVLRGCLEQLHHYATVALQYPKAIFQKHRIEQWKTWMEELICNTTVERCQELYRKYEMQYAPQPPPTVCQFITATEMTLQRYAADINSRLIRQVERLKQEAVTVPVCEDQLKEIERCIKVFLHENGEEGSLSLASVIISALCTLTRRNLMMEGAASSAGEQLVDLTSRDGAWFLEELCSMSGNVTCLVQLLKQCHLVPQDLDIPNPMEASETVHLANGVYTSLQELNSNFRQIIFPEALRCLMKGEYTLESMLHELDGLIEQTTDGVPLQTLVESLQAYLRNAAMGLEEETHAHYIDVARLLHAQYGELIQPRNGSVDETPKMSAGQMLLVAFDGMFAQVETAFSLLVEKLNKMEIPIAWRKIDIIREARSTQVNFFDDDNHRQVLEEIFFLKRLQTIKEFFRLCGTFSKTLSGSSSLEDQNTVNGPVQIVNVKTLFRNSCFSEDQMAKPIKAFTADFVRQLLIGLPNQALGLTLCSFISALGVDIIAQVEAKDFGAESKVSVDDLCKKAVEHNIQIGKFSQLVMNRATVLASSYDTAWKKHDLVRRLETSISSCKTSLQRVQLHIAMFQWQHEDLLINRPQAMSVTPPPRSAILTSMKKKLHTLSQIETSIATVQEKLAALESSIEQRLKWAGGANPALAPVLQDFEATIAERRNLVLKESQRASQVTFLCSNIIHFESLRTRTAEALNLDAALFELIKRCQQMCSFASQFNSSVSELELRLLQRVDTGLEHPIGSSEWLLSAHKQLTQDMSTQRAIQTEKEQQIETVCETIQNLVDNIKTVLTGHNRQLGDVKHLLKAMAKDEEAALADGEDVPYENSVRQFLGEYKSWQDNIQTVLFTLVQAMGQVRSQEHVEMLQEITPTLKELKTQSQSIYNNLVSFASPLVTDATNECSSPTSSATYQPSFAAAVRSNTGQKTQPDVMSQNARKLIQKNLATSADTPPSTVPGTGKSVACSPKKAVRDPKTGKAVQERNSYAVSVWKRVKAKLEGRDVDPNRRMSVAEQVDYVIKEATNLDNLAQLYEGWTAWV

Residue numbers refer to the chain shown, from its start. These are yes or no findings as the source states them, for the method shown. Binding seen in cells or lysates may run through a third protein. Some results given as binding are weak or reduced against the parent protein; the word gives no strength. For some assays here: Sequences can lack the tags named with a protein.

Test [1] has as its target T1, FLAG-DHX34 (human) (UniProt Q14147).
T1 sequence: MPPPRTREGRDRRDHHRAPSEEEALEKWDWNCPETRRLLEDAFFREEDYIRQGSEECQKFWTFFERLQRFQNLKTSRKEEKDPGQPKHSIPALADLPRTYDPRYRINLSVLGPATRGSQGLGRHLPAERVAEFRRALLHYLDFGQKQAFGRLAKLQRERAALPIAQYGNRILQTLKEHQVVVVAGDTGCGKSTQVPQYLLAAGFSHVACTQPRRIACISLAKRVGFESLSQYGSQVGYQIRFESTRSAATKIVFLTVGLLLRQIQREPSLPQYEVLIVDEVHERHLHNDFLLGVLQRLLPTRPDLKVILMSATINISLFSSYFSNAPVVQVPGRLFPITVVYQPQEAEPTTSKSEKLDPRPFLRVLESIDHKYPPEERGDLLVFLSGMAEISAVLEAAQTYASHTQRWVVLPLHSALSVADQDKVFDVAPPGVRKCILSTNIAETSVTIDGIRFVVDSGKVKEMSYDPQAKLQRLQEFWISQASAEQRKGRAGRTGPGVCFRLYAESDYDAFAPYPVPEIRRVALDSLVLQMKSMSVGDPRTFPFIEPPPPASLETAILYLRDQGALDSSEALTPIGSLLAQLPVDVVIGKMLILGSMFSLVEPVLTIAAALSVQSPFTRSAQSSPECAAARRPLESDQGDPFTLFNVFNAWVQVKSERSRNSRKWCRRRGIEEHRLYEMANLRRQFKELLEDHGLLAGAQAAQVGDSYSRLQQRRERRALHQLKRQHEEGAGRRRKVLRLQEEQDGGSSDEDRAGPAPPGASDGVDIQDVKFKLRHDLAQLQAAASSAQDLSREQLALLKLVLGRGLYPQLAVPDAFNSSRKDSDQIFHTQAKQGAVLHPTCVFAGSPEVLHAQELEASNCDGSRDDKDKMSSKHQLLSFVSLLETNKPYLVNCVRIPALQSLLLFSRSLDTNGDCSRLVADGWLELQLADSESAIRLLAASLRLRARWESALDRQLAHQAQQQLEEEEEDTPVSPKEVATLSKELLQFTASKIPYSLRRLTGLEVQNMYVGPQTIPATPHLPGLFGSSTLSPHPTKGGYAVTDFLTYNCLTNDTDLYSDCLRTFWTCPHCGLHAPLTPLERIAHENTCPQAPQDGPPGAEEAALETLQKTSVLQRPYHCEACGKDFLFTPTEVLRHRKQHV
The experiment in a line: co-IP; anti-FLAG IP of transiently transfected FLAG-DHX34 from HEK293T lysate, in the absence or presence of RNase A; endogenous partners by western blot. (In general: In western blotting, separated proteins are transferred to a membrane and probed.)

The target of test [2] is T2, T7-DHX34 K191S (human) (UniProt Q14147).
T2 sequence: T1 sequence with K191S
The experiment in a line: co-IP; IP of transiently transfected T7-DHX34 (wild-type or mutants) from HEK293T lysate, in the presence of RNase A (Figure 3B); endogenous partners by western blot.

Regarding SMG1 (from UniProt Q96Q15 1-3661), the binding result in test [1] and in test [2] was “binds” throughout.
